Source: US9804165 (MOR NUCO ENTERPRISES, dated 2017)

What was measured:
[1] = target: T1, serotransferrin (79-85 kDa, isoelectric point pH 6.8 reference protein of serum) (human, UniProt P02787); test: 2-D gel western blot of cancer sera (Table 4)
T1 construct: also called serrotransferrin

[2] = target: Ref 3 (human); test: 2-D gel western blot of cancer sera (Table 4)

T1 sequence (P02787 20-698 limits assumed): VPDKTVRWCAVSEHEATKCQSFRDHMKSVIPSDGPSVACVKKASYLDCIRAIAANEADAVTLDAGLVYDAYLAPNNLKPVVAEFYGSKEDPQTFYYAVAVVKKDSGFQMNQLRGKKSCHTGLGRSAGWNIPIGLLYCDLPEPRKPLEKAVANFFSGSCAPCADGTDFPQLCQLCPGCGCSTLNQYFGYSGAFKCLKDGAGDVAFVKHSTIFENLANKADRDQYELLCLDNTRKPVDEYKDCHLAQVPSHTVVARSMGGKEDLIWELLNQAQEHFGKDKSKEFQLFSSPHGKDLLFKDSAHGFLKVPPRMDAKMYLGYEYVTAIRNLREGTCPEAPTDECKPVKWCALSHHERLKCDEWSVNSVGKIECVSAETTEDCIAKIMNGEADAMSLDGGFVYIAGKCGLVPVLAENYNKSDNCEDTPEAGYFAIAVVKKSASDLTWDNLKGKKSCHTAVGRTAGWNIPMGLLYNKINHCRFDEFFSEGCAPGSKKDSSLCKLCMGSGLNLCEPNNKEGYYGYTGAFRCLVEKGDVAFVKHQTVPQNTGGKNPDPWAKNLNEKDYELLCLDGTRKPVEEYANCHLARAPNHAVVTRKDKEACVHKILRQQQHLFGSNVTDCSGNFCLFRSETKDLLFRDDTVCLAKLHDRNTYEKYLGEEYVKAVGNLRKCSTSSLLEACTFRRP

B1: scFv(S)(GST) with Gly.Ser.Cys linker [scFv(SC)] (scFv)
scFv: [about 200 residues omitted]SDLVPRGSPGIPEVKLQESGTEVVKPGASVKLSCKASGYIFTSYDIDWVRQTPEQGLEWIGWIFPGEGSTEYNEKFKGRATLSVDKSSSTAYMELTRLTSEDSAVYFCARGDYYRRYFDLWGQGTTVTVSSGGGGSCGGGSCGGGSENVLTQSPAIMSASPGERVTMTCSASSSIRYIYWYQQKPGSSPRLLIYDTSNVAPGVPFRFSGSGSGTSYSLTINRMEAEDAATYYCQEWSGYPYTFGGGTKLELKA
notes: also called functionalized scFv recombinant antibody; ScFV with -CXXC-XX-C linker; not shown: not p
fold signal, storage in 50% glycerol against absence of glycerol [1]: ~2 fold
fold signal, storage in 50% glycerol against absence of glycerol [2]: ~2 fold
